# Assay results from paper PMC12040169 (PLOS Biology, 2025).
# The other results are listed elsewhere or left out.
# Tested on: T1, C. trachomatis L2/434/Bu expressing GFP (CTL2-GFP)
# T1 construct: L2/434/Bu GFP intracellular growth in HeLa cells
# Set-up: species or system HeLa; C. trachomatis total inclusion area by high-content imaging, normalised to DMSO
# Details: total inclusion area; 28.5 h, 10 µM; inhibitor
# How it was run: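 After bulk GFP and resorufin fluorescence reads, cells were fixed, stained with Hoechst and imaged by high-content microscopy. Inclusion area and number (GFP) stood in for chlamydial growth, nuclei count (Hoechst) for host cell viability. MICs were derived as for the bulk readout.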
row,SMILES,% of control remaining
1,COc1ccc(CN(C)c2c(C)nc3c(OCC(=O)N4CCOCC4)cccn23)cc1 [CBK147469],102.715
2,O=C(CCn1cnnn1)Nc1cc(C(F)(F)F)ccc1Cl [CBK270127],100.171
3,NC(=O)CC[C@H](N)C(=O)N1CC[C@@H]2NC(=O)[C@H](Cc3ccccc3)NC(=O)C3(C/C=C/C[C@@H]2C1)CCOCC3 [CBK292199],116.53
4,CN(CCCNC(=O)c1ncoc1-c1cccs1)c1ccccc1 [CBK282248],88.1666
5,O=C(c1ccc(F)cc1)C1CCN(Cc2ccc(Cl)c(Cl)c2)CC1 [CBK149114],107.168
6,COc1cc2c(cc1OC)C1c3ccccc3NC(c3ccc(F)cc3)N1CC2 (centres unmarked) [CBK286191],95.9095
7,Cc1c(OCc2cnn(-c3ccccc3)c2)ccc(-c2n[nH]c(C(F)(F)F)c2-c2ccccc2)c1O [CBK264962],47.3803
8,Nc1nc(N)nc(CSc2ncc(-c3ccccc3)n2-c2ccccc2)n1 [CBK297103],116.224
9,COc1ccc(C)cc1NC(=O)CCN1CCN(CCO)CC1 [CBK264199],100.737
10,O=C(NCCCc1ccc(Cl)cc1)c1cc2c([nH]c1=O)CCC2 [CBK281560],107.947
11,COc1ccccc1Cc1cccc(C2CCN(C(=O)c3ccc(F)cc3)CC2)n1 [CBK286237],89.7873
12,Cn1nc(C(=O)Nc2ccccc2Oc2ccc(F)cc2)ccc1=O [CBK281430],106.063
13,COC(=O)c1c(C)n[nH]c1COc1ccccc1 [CBK057823],73.7398
14,Cc1noc(C)c1C(=O)Nc1ccc(N2CCOCC2)c2nonc12 [CBK268125],63.8658
15,Cc1ccccc1-c1cncc(C2CCN(C(=O)Cc3c[nH]c4ccccc34)CC2)n1 [CBK286148],123.705
16,Cc1nc(CCNC(=O)N(Cc2cnn(C)c2)C2CC2)nc2c1CCC2 [CBK307650],58.7645
17,Cc1cc(C)n2nc(CC(=O)NCCCn3cc(Cl)cn3)nc2n1 [CBK307276],60.4092
18,CC1(CNC(=O)c2cc(-c3ccc(F)cc3)no2)COC1 [CBK281757],99.1592
19,O=C(NCC1CCCO1)c1ccc2c(c1)C(=O)N(c1ccccc1-c1ccccc1)C2=O (centres unmarked) [CBK262777],112.373
20,COc1cc(S(=O)(=O)NCCc2ccccc2)c(OC)cc1C [CBK269868],91.1224
21,Cc1cc(C)c(NC(=O)CSc2nnc(Cc3ccccc3)n2C)c(C)c1 [CBK265990],75.783
22,CC(O)CNc1nccnc1-c1cccc(O)c1 (centres unmarked) [CBK037055],118.2
23,COc1ccc(-c2ccc(CCC(=O)O)n2-c2ccc(N(C)C)cc2)cc1 [CBK131895],87.9907
24,COc1cc(/C=N/Nc2ccc(C(=O)O)cc2)cc(Br)c1O [CBK263318],73.9465
25,O=C(CCn1cnnn1)N1C[C@H]2CC[C@@H]1CN(Cc1cccnc1)C2 [CBK307029],96.9096
26,Cc1onc(-c2ccccc2)c1CNC(=O)c1cncnc1 [CBK144098],94.1844
27,CCN1CCN(c2ccc(Nc3ccnc4cc5ccccc5cc34)cc2)CC1 [CBK261130],64.2337

row,SMILES,% of control remaining
1,Cc1ccc(C2=CCN(CC(=O)Nc3nccs3)CC2)o1 [CBK283557],105.513
2,N#Cc1c(N)ncnc1-c1ccccc1 [CBK102172],107.117
3,O=C(CSc1nnc(-c2ccncc2)n1-c1ccccc1)N/N=C/c1ccccc1O [CBK262788],112.46
4,CC1=NN(c2ccccc2F)C(=O)C1 [CBK067773],64.6955
5,O=C(Nc1nccs1)c1ncoc1-c1cccs1 [CBK283975],90.178
6,O=C1CCC(=O)N1CCN1CC(O)CC1c1cc(F)ccc1F (centres unmarked) [CBK306390],23.5085
7,COc1ccc(Nc2cc(-c3cc4ccccc4o3)ncn2)c(C)c1 [CBK091040],82.3952
8,CCOC(=O)CC(=O)N1CCC(c2onc3c2CC(C)CC3)CC1 (centres unmarked) [CBK285187],87.2666
9,O=C(CC1CCCC1)NCCn1nc(-c2ccco2)ccc1=O [CBK283864],99.4534
10,O=C(C1CCC1)N1CCC2(CC1)Nc1cccnc1-n1cccc12 [CBK284505],82.4664
11,O=[N+]([O-])c1ccc(/C=N/c2cccc(-c3nc4ccccc4s3)c2)cc1 [CBK293918],94.8739
12,CS(=O)(=O)N1CC2(CCN(CC3CCCCC3)CC2)c2ccccc21 [CBK084018],67.9141
13,C=CCn1c(COc2ccc(Cl)cc2)nnc1SCC(=O)O [CBK263171],38.0157
14,Cc1ccc(-c2ccc(CCC(=O)O)n2CC(=O)O)cc1 [CBK286922],111.24
15,O=C(Nc1ccc2oc(-c3cccnc3)nc2c1)c1ccc(-c2cccc([N+](=O)[O-])c2)o1 [CBK262945],82.3327
16,CC(CN1CCOCC1)OC(=O)c1ccco1 (centres unmarked) [CBK264606C],97.9072
17,Cc1cn(S(=O)(=O)N(C)C)nc1-c1ccccc1 [CBK005210],130.042
18,Cc1ccc(OC(C)C(=O)NNC(=O)c2ccc([N+](=O)[O-])cc2)cc1 (centres unmarked) [CBK269065],83.6559
19,O=C(O)c1ccc(CN2CCOC[C@H]2c2nc(-c3ccc(F)cc3)c[nH]2)cc1 [CBK289304],83.6494
20,Cc1cc(C(=O)O)c2[nH]c3c(c2c1)CCCC3 [CBK028885],83.3016
21,O=C(CCn1cccn1)Nc1ccc(OC2CCCC2)cc1 [CBK281861],98.2046
22,Cc1c(S(=O)(=O)NCCN(C)C)sc2ccc(C(C)C)cc12 [CBK170357],76.762
23,Cc1nnc(CN2CCOc3ccc(Br)cc3C2)o1 [CBK304079],75.2296
24,COc1ccc(C(=O)Nc2ccc(S(=O)(=O)N3CCN(C)CC3)cc2)cc1 [CBK267622],106.747
25,O=C1Nc2cc(Cl)ccc2C(=O)N2CC[C@H](NS(=O)(=O)c3cccs3)[C@@H]12 [CBK289341],94.274
26,COc1ccc(/C=C(/C#N)C(=O)Nc2cccc(C)c2C)cc1C(=O)O [CBK262751],107.875
27,O=C(CCC(=O)c1ccccc1)NC1CCc2ccccc21 (centres unmarked) [CBK003351],116.393

row,SMILES,% of control remaining
1,Cc1c(C(=O)N2CCCCC2)sc2nc(C(F)(F)F)nn12 [CBK006455],77.1267
2,Cc1csc(NC(=O)CN2CCC(c3ccccc3F)CC2)n1 [CBK283569],94.9628
3,CN1CCCC1CNCc1cn(-c2ccccc2)nc1-c1cccnc1 (centres unmarked) [CBK304490],19.9441
4,Nc1ncc(-c2ccc(C(=O)N3CCOCC3)cc2)nc1-c1ccc(CCC(=O)O)cc1 [CBK126368],86.4871
5,Cn1cnc(S(=O)(=O)N2CCC(C(=O)NC(c3ccccn3)c3cccs3)CC2)c1 (centres unmarked) [CBK060131],84.1282
6,COc1ccc(S(=O)(=O)NC(C)C(=O)NCc2ccncc2)cc1C (centres unmarked) [CBK269347],58.9986
7,COc1ccc2c(c1OC)C(=O)N1C2SC(C)(C)C1C(=O)O (centres unmarked) [CBK011479],97.854
8,O=C(CN1C(=O)[C@H]2CCCN2c2ncccc21)NCCc1c[nH]c2ccccc12 [CBK286206],89.8434
9,CSCCC(NC(=O)c1c(C)oc2c1CCCC2)C(=O)O (centres unmarked) [CBK264029],104.065
10,CCOc1ccc(-c2nc(-c3cccc(NC(=O)c4ccccc4C(=O)O)c3)no2)cc1 [CBK299832],63.9968
11,CC(C)(C)NCC(O)COc1ccc(Cl)cc1Cl (centres unmarked) [CBK025597C],31.4642
12,O=C1c2ccc(S(=O)(=O)c3ccc4c(c3)C(=O)N(CCO)C4=O)cc2C(=O)N1CCO [CBK023065],91.8811
13,CN(C)C(=O)C1(Cc2ccccc2-c2ccccc2)CCN(C(=O)c2cccc(F)c2)CC1 [CBK285675],100.746
14,NC(=O)C1CN(C(=O)CN2CCCc3ccccc32)c2ccccc2O1 (centres unmarked) [CBK295163],104.094
15,NC(=O)c1nc(-c2ccco2)nc2c1[nH]c(=O)n2-c1ccc(Cl)cc1 [CBK287545],84.7577
16,Cn1c(=O)c2c(ncn2CC(=O)NCCOc2ccccc2)n(C)c1=O [CBK304654],50.6124
17,COc1cccc(CNc2cccc(C(=O)O)c2)c1OCc1ccc(Cl)cc1Cl [CBK074424],103.651
18,O=C(CN1CCOCC1)Nc1ccc(NC(=O)CN2CCOCC2)c(Cl)c1 [CBK264243],104.092
19,Cc1nccn1CC(C)C(=O)NCCN(C)C1CCCCC1 (centres unmarked) [CBK282040],75.9673
20,O=C(NC(Cc1cccs1)c1nccs1)c1ccncc1 (centres unmarked) [CBK285134],91.6556
21,CC(=O)Nc1ccc(S(=O)(=O)N2CCC3(CC2)NC(=O)c2cc(-c4ccoc4)ccc2O3)cc1 [CBK115856],74.3487
22,N#Cc1c(N)nc2c(c1-c1cccnc1)CCCC2 [CBK287885],125.985
23,Cc1ccc(C(=O)c2coc3ccc(O)cc23)cc1 [CBK115557],107.465
24,Cc1ccc2c(CC(=O)N(C)CCc3cn[nH]c3)coc2c1 [CBK283239],83.8188
25,Cc1ccc(C2C(C(=O)c3sc(-c4ccccc4)nc3C)=C(O)C(=O)N2CCN(C)C)o1 (centres unmarked) [CBK234004],136.795
26,O=C(Nc1ccc(Br)c2cccnc12)c1ccc(Cn2cc(Cl)cn2)o1 [CBK265893],83.9964
